No constants are given. Whether binding was seen depends on the method and setting. In cells and extracts the contact can be indirect. Some binding calls cover weakened binding; strength is not graded here. Sequences can lack the tags named with a protein.

The chains behind the UniProt entries cited, without tags or fusion partners.
UniProt Q60974: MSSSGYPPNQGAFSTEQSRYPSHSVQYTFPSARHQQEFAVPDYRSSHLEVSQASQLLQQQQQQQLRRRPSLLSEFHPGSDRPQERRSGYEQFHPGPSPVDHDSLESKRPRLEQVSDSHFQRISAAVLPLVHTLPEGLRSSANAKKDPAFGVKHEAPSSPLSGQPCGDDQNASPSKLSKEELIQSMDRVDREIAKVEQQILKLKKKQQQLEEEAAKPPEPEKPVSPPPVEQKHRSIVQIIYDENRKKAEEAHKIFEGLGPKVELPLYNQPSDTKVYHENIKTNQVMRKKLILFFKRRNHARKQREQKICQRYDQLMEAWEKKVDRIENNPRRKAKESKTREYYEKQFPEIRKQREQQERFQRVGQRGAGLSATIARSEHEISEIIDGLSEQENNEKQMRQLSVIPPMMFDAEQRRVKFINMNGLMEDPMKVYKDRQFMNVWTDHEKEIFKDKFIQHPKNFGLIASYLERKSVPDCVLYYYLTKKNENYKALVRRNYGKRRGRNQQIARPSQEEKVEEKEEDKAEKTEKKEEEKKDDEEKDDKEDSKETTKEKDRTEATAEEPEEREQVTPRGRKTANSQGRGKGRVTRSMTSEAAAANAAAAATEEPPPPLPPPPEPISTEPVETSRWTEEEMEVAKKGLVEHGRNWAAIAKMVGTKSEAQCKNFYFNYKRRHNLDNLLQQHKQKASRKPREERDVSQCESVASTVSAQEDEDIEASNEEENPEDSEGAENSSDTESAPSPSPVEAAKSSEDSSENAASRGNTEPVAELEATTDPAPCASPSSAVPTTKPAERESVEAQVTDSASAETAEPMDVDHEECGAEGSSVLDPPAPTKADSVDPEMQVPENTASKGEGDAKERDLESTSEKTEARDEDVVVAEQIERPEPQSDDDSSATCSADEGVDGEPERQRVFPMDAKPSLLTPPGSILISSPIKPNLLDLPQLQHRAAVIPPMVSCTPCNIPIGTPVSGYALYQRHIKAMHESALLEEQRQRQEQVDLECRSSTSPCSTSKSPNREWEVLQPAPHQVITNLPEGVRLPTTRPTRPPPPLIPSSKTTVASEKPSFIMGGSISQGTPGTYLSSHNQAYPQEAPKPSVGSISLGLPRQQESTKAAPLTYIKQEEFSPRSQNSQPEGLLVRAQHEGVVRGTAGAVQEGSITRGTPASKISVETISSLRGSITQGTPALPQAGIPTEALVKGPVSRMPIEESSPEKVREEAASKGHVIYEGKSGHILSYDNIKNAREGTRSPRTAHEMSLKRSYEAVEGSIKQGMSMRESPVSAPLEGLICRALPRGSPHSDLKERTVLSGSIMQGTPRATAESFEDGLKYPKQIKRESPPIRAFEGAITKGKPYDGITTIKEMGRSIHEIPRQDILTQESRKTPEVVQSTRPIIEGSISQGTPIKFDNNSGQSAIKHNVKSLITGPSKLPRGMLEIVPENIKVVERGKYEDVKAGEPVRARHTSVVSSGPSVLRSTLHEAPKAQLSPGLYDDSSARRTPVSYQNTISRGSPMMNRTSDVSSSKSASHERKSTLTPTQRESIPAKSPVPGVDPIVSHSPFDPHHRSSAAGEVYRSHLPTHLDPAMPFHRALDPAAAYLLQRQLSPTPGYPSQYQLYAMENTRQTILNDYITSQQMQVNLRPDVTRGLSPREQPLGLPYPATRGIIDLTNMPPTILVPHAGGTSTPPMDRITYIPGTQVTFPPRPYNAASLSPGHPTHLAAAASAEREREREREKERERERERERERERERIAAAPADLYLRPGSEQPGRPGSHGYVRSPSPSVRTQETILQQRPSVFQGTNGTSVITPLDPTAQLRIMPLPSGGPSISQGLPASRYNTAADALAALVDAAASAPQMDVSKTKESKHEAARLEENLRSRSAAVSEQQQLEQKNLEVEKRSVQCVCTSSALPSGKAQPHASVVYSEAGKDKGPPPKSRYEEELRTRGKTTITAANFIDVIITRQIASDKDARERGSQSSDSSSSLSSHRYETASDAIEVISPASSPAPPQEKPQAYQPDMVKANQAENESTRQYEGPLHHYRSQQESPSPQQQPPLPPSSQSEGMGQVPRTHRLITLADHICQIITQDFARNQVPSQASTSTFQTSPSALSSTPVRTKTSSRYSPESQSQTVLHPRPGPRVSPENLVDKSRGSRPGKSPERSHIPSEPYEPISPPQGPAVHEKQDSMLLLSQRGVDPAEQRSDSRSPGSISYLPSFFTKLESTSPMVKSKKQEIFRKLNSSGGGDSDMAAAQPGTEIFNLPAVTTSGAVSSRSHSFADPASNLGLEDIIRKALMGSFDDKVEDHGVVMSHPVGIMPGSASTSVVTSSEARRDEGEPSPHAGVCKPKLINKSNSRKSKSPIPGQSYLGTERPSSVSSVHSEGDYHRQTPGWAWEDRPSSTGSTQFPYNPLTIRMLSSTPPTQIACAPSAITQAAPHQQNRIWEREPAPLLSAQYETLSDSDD

Common to all, as to test: co-IP; HEK293T cells transiently cotransfected for 48 h; lysates in 50 mM Tris-HCl pH 8.0, 150 mM NaCl, 5 mM EDTA, 0.5% NP-40; Snail2-HA precipitated overnight with anti-HA antibodies and sepharose G beads (NCoR panels) or anti-HA affinity matrix (CtBP1 panels); Western blot with anti-flag and anti-HA
(A western blot detects proteins with antibodies after separation by electrophoresis.)

For assay [1], the target named is T1, Snail2-HA wild type (mouse) (UniProt P97469).
T1 sequence: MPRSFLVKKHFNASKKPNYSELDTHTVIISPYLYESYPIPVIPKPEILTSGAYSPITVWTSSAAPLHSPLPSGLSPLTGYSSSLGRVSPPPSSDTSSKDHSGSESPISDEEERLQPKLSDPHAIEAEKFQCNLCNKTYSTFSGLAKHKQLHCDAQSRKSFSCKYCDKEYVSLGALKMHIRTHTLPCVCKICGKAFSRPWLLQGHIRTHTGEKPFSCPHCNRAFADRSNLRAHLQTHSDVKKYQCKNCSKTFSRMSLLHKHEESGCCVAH

The target of assay [2] is T2, Snail2-HA ΔSLUG mutant (mouse) (UniProt P97469).
T2 sequence: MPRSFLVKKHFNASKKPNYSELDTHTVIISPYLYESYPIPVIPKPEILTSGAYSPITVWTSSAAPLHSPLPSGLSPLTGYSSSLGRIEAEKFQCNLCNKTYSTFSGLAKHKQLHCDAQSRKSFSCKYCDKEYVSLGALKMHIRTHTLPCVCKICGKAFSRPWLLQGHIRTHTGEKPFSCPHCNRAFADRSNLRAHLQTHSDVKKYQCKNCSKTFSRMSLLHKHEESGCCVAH

The target of assay [3] is T3, Snail2-HA ΔSNAG mutant (mouse) (UniProt P97469).
T3 sequence: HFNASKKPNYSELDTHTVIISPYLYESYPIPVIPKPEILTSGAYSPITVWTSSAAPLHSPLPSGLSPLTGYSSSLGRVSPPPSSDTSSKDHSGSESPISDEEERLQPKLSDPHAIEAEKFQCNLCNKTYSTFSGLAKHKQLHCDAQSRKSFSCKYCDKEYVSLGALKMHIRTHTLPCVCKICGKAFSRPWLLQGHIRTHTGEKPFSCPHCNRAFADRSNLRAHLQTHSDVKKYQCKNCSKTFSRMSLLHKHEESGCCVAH

In the case of CtBP1-flag (from UniProt O88712 1-441), the binding result is “binds” in assay [1], “no binding” in assay [2] and “binds” in assay [3].

With NCoR-flag (from UniProt Q60974 1-2453), the binding result was “binds” in assay [1], “binds” in assay [2] and “no binding” in assay [3].

(Values after PMC3342263.)
